Article PMC11790891
No constants are given. Whether binding was seen depends on the method and setting. Some results given as binding are weak or reduced against the parent protein; the word gives no strength. Tags and fused reporters may be left off the sequences shown.

Chains of the proteins cited; added tags and fusions are not shown. Lines headed by an entry give the natural chain unless they say otherwise; changes in a name come on top.
UniProt Q14683: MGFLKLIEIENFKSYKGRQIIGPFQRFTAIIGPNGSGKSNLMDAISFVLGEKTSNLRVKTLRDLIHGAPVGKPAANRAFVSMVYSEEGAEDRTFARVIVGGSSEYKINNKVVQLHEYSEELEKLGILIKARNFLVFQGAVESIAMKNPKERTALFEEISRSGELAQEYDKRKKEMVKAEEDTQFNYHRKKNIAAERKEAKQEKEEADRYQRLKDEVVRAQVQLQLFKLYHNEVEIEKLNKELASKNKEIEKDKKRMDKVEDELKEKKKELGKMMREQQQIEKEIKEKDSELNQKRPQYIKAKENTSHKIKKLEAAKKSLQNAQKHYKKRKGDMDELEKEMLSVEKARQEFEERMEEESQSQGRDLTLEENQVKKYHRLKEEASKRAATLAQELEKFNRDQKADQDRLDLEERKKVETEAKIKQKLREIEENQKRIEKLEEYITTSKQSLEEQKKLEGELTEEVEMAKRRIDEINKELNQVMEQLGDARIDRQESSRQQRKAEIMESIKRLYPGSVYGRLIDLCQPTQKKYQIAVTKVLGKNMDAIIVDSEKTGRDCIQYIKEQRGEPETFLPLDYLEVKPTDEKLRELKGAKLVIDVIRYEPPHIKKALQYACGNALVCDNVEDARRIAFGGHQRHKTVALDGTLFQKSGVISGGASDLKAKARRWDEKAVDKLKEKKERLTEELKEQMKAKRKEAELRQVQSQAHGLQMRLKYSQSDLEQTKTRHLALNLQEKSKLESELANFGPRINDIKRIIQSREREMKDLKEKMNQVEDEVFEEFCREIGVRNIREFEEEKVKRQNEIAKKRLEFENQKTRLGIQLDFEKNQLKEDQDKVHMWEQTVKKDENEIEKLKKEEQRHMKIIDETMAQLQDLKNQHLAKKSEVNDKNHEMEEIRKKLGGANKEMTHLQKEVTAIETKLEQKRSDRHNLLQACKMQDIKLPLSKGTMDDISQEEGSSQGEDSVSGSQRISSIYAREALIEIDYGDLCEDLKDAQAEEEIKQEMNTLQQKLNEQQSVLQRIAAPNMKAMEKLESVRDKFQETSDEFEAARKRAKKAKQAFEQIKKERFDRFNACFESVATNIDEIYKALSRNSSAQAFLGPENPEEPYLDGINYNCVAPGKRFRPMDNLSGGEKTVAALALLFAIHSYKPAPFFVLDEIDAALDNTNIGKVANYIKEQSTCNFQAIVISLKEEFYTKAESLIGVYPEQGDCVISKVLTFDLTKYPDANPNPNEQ
UniProt Q9UQE7: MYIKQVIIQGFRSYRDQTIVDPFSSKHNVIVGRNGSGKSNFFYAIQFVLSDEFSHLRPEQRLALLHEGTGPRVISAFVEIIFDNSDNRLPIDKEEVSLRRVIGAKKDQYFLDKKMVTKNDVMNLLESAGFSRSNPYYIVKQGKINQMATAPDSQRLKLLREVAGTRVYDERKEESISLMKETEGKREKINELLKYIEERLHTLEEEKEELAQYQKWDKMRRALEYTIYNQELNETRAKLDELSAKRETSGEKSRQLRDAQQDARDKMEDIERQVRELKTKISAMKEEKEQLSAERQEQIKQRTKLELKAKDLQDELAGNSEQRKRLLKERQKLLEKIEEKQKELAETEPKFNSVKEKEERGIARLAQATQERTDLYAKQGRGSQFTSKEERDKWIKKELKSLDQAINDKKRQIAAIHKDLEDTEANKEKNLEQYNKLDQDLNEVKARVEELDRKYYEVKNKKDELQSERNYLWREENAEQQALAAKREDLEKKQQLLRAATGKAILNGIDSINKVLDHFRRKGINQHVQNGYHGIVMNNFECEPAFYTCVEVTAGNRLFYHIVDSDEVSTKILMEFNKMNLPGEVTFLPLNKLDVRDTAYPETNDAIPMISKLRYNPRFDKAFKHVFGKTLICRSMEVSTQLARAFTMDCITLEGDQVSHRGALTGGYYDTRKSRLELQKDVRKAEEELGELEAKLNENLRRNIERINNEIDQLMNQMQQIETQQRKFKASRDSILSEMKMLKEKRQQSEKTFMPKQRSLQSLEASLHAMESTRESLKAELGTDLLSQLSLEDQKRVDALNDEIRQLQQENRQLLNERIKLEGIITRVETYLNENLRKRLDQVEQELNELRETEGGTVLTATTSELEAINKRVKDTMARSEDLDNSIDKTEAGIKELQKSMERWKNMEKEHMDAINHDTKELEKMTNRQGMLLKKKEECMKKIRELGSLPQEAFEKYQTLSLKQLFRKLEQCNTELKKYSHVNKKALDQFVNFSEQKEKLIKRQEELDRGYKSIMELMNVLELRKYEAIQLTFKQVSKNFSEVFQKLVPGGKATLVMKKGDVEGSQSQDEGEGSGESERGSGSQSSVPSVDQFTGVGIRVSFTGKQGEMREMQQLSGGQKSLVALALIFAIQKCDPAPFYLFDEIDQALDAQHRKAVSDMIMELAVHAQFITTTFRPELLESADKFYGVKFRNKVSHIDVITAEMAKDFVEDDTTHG
UniProt O60216: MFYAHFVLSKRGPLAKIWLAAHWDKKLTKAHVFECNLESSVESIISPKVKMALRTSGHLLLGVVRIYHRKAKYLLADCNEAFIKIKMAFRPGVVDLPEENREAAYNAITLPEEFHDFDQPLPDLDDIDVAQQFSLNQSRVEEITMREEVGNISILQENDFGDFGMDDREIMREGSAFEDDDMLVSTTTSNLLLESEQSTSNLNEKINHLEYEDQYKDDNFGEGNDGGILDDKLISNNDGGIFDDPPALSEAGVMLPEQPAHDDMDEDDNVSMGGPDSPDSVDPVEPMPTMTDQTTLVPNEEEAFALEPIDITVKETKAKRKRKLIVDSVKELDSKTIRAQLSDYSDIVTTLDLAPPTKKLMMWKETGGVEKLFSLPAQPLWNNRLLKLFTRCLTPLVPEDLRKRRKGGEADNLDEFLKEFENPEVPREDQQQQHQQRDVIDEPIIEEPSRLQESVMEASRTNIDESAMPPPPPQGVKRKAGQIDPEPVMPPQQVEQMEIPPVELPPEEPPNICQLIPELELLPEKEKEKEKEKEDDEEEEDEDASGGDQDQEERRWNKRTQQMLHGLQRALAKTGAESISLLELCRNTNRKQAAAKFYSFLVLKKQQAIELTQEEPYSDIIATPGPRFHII
UniProt Q8WVM7: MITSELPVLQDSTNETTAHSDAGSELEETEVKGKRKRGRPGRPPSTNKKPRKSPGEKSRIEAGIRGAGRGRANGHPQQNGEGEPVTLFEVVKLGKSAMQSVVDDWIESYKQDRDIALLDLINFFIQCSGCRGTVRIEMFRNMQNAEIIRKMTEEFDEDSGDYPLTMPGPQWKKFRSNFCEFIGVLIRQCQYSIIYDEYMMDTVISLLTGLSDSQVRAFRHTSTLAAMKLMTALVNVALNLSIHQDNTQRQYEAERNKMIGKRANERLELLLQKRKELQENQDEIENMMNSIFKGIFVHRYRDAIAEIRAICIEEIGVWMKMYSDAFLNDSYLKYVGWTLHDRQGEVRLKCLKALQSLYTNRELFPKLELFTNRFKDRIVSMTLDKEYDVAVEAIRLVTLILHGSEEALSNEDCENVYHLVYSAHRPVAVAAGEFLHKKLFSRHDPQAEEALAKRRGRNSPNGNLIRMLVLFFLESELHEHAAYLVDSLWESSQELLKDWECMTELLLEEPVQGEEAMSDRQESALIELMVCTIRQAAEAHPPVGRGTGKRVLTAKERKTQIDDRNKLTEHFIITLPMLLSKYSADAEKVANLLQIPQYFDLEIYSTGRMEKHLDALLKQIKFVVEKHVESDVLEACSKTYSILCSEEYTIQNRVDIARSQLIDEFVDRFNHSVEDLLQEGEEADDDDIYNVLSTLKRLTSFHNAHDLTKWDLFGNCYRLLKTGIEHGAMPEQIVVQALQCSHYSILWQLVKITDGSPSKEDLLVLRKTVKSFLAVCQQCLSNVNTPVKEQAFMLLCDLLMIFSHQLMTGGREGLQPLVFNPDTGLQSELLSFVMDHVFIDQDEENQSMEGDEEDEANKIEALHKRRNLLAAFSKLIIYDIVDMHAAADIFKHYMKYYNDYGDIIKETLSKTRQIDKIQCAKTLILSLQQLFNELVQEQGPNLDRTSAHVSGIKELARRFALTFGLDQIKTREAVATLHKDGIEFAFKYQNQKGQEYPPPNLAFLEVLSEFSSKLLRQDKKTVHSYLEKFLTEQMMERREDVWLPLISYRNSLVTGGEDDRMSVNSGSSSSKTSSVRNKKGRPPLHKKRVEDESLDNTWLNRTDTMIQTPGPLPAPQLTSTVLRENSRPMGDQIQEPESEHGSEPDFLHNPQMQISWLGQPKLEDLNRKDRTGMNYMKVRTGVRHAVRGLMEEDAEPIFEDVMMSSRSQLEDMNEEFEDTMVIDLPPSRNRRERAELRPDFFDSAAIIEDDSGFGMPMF

target: human recombinant cohesin tetramer with STAG1 (SMC1, SMC3, SCC1, STAG1) (human) (UniProt Q14683+Q9UQE7+O60216+Q8WVM7); assay: pull-down; in vitro binding assay: cohesin complexes held on FLAG beads mixed with purified Phf2 at 4 °C for 1 h in 35 mM Hepes pH 7.5, 100 mM NaCl, 5% glycerol, 0.01% Tween; three washes; eluted with FLAG peptide; silver staining or Western blot; both purified

| binding | Binder |
| --- | --- |
| binds | His-Phf2 Δ1 (residues 1-450 deleted) (domain or fragment, UniProt O75151 451-1096) PEVNTVASSDEVCDGDREKEEPPSPIEATPPQSLLEKVSKKKTPKTVKMPKPSKIPKPPKPPKPPRPPKTLKLKDGGKKKGKKSRESASPTIPNLDLLEAHTKEALTKMEPPKKGKATKSVLSVPNKDVVHMQNDVERLEIREQTKSKSEAKWKYKNSKPDSLLKMEEEQKLEKSPLAGNKDNKFSFSFSNKKLLGSKALRPPTSPGVFGALQNFKEDKPKPVRDEYEYVSDDGELKIDEFPIRRKKNAPKRDLSFLLDKKAVLPTPVTKPKLDSAAYKSDDSSDEGSLHIDTDTKPGRNARVKKESGSSAAGILDLLQASEEVGALEYNPSSQPPASPSTQEAIQGMLSMANLQASDSCLQTTWGAGQAKGSSLAAHGARKNGGGSGKSAGKRLLKRAAKNSVDLDDYEEEQDHLDACFKDSDYVYPSLESDEDNPIFKSRSKKRKGSDDAPYSPTARVGPSVPRQDRPVREGTRVASIETGLAAAAAKLSQQEEQKSKKKKSAKRKLTPNTTSPSTSTSISAGTTSTSTTPASTTPASTTPASTSTASSQASQEGSSPEPPPESHSSSLADHEYTAAGTFTGAQAGRTSQPMAPGVFLTQRRPSASSPNNNTAAKGKRTKKGMATAKQRLGKILKIHRNGKLLL |
| binds | His-Phf2 Δ4 (residues 820-1096 deleted) (domain or fragment, UniProt O75151 1-819) MATVPVYCVCRLPYDVTRFMIECDACKDWFHGSCVGVEEEEAPDIDIYHCPNCEKTHGKSTLKKKRTWHKHGPGQAPDVKPVQNGSQLFIKELRSRTFPSAEDVVARVPGSQLTLGYMEEHGFTEPILVPKKDGLGLAVPAPTFYVSDVENYVGPERSVDVTDVTKQKDCKMKLKEFVDYYYSTNRKRVLNVTNLEFSDTRMSSFVEPPDIVKKLSWVENYWPDDALLAKPKVTKYCLICVKDSYTDFHIDSGGASAWYHVLKGEKTFYLIRPASANISLYERWRSASNHSEMFFADQVDKCYKCIVKQGQTLFIPSGWIYATLTPVDCLAFAGHFLHSLSVEMQMRAYEVERRLKLGSLTQFPNFETACWYMGKHLLEAFKGSHKSGKQLPPHLVQGAKILNGAFRSWTKKQALAEHEDELPEHFKPSQLIKDLAKEIRLSENASKAVRPEVNTVASSDEVCDGDREKEEPPSPIEATPPQSLLEKVSKKKTPKTVKMPKPSKIPKPPKPPKPPRPPKTLKLKDGGKKKGKKSRESASPTIPNLDLLEAHTKEALTKMEPPKKGKATKSVLSVPNKDVVHMQNDVERLEIREQTKSKSEAKWKYKNSKPDSLLKMEEEQKLEKSPLAGNKDNKFSFSFSNKKLLGSKALRPPTSPGVFGALQNFKEDKPKPVRDEYEYVSDDGELKIDEFPIRRKKNAPKRDLSFLLDKKAVLPTPVTKPKLDSAAYKSDDSSDEGSLHIDTDTKPGRNARVKKESGSSAAGILDLLQASEEVGALEYNPSSQPPASPSTQEAIQGMLSMANLQASDSCLQTTWGAGQ |
| no binding | His-Phf2 Δ3 (residues 660-819 deleted) (protein, UniProt O75151) MATVPVYCVCRLPYDVTRFMIECDACKDWFHGSCVGVEEEEAPDIDIYHCPNCEKTHGKSTLKKKRTWHKHGPGQAPDVKPVQNGSQLFIKELRSRTFPSAEDVVARVPGSQLTLGYMEEHGFTEPILVPKKDGLGLAVPAPTFYVSDVENYVGPERSVDVTDVTKQKDCKMKLKEFVDYYYSTNRKRVLNVTNLEFSDTRMSSFVEPPDIVKKLSWVENYWPDDALLAKPKVTKYCLICVKDSYTDFHIDSGGASAWYHVLKGEKTFYLIRPASANISLYERWRSASNHSEMFFADQVDKCYKCIVKQGQTLFIPSGWIYATLTPVDCLAFAGHFLHSLSVEMQMRAYEVERRLKLGSLTQFPNFETACWYMGKHLLEAFKGSHKSGKQLPPHLVQGAKILNGAFRSWTKKQALAEHEDELPEHFKPSQLIKDLAKEIRLSENASKAVRPEVNTVASSDEVCDGDREKEEPPSPIEATPPQSLLEKVSKKKTPKTVKMPKPSKIPKPPKPPKPPRPPKTLKLKDGGKKKGKKSRESASPTIPNLDLLEAHTKEALTKMEPPKKGKATKSVLSVPNKDVVHMQNDVERLEIREQTKSKSEAKWKYKNSKPDSLLKMEEEQKLEKSPLAGNKDNKFSFSFSNKKLLGSKALRPPTSPGVFAKGSSLAAHGARKNGGGSGKSAGKRLLKRAAKNSVDLDDYEEEQDHLDACFKDSDYVYPSLESDEDNPIFKSRSKKRKGSDDAPYSPTARVGPSVPRQDRPVREGTRVASIETGLAAAAAKLSQQEEQKSKKKKSAKRKLTPNTTSPSTSTSISAGTTSTSTTPASTTPASTTPASTSTASSQASQEGSSPEPPPESHSSSLADHEYTAAGTFTGAQAGRTSQPMAPGVFLTQRRPSASSPNNNTAAKGKRTKKGMATAKQRLGKILKIHRNGKLLL |
